These are yes or no findings as the source states them, for the method shown. For part of these data: Binding seen in cells or lysates may run through a third protein. Some results given as binding are weak or reduced against the parent protein; the word gives no strength. Tags and fused reporters may be left off the sequences shown.

Chains of the proteins cited; added tags and fusions are not shown.
UniProt P82280: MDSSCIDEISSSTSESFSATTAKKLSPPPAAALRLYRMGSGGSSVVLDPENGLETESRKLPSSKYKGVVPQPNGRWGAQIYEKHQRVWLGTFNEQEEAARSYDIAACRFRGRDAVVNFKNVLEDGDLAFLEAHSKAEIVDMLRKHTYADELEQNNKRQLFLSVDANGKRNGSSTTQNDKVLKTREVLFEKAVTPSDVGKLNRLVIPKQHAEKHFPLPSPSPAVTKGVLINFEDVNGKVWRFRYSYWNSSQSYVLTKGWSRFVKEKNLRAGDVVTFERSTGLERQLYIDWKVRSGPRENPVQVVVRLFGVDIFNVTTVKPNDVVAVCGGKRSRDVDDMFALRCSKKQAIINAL

In experiment [1] the target is T1, BD-GT-4N (N-terminal end of GT-4 fused to the GAL4 DNA-binding domain) (Arabidopsis) (UniProt Q9LU92).
T1 sequence: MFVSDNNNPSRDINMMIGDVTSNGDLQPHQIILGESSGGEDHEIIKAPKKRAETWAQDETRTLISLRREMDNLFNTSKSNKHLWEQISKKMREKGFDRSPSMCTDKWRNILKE
Put plainly: two-hybrid; pairwise mating of BD and AD fusions; growth on DDO and QDO/X/A plates for 3 d, blue colour means a positive interaction.

The target of experiment [2] is T2, BD-GT-4 (GT-4 fused to the GAL4 DNA-binding domain, pGBKT7-GT-4) (Arabidopsis) (UniProt Q9LU92).
T2 sequence: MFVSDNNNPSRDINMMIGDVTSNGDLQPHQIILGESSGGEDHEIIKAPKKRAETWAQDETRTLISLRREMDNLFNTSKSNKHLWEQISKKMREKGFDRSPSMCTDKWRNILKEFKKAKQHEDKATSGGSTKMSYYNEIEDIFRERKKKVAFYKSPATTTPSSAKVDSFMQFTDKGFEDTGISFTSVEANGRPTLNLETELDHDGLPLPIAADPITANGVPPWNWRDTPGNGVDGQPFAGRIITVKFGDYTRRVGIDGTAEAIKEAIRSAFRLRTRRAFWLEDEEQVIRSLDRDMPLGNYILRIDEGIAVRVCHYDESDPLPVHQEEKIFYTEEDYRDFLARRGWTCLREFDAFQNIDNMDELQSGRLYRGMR
Described as above.

In experiment [3] the target is T3, BD-GT-4C (C-terminal end of GT-4 fused to the GAL4 DNA-binding domain) (Arabidopsis) (UniProt Q9LU92).
T3 sequence: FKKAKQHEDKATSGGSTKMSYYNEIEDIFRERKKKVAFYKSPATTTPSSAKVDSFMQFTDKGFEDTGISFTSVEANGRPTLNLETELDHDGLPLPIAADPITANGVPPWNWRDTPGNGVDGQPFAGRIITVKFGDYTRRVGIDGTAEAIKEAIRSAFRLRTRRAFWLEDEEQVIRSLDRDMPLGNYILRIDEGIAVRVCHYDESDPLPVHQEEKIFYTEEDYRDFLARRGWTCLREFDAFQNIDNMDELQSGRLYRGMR
Described as above.

Experiment [4] addresses T4, GT-4-YFPc (GT-4 fused to the C-terminal part of yellow fluorescent protein) (Arabidopsis) (UniProt Q9LU92).
T4 sequence: T2 sequence
Description: split reporter; BiFC with YFP halves, constructs co-transformed into Arabidopsis protoplasts, confocal microscopy 16 h later.

Experiment [5] has as its target Myc-TEM2 (35S-Myc-TEM2) (Arabidopsis) (UniProt P82280). Description: co-IP; nuclear proteins from agro-infiltrated tobacco leaves, IP buffer 50 mM Tris-HCl pH 7.6, 150 mM NaCl, 0.5% NP-40, 0.2% Triton X-100, 2 mM EDTA; anti-c-Myc agarose beads overnight at 4 C; western blot with anti-Flag or anti-Myc. On the technique in general: A western blot detects proteins with antibodies after separation by electrophoresis.

Regarding “AD-TEM2 (TEM2 fused to the GAL4 activation domain, pGADT7-TEM2) (from UniProt P82280 1-352)”, the binding result is “no binding” in experiment [1], “binds” in experiment [2] and “binds” in experiment [3]. “TEM2-YFPn (TEM2 fused to the N-terminal part of yellow fluorescent protein) (from UniProt P82280 1-352)”: the binding entry in experiment [4] was “binds”.

B1: BD-GT-4 (GT-4 fused to the GAL4 DNA-binding domain, pGBKT7-GT-4) (protein, UniProt Q9LU92 1-372)
chain: T2 sequence
In the case of B1, the binding result in experiment [2] was “binds”.

B2: GT-4-Flag (35S-GT-4-Flag) (protein, UniProt Q9LU92 1-372)
chain: T2 sequence
For the molecule B2, the binding result in experiment [5] is listed as “binds”.
